# Out of some 350,000 compounds screened, about 31,000 (8.9%) were called active. This list was built around the results that the source calls inconclusive (neither active nor inactive); the mix of calls is not that of the screen. Calls follow the shape of the dose curve; as a rule, active = well fitted inhibition curve with a large enough effect; inconclusive = small, poorly fitted or top-dose-only effect; inactive = no such curve, though single readings can be large or run the other way. A potency beside an inconclusive call is a rough fit, not a confirmed value.
# Target: Histone-lysine N-methyltransferase EHMT2 (Homo sapiens) (UniProt Q96KQ7)
# Assay: qHTS Assay for Inhibitors of Histone Lysine Methyltransferase G9a; also: nearly all actives have a fitted effect of over 75% in size
# Details: G9a H3K9 monomethylation, AlphaScreen, 2 h; activity, negative = inhibition: at 59 µM (top of the series) unless noted
# In short: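 Readings reflect AlphaScreen signal from monomethyl-H3K9 antibody detection. HMT at 20 nM; substrate b-H3K9 500 nM; cofactor SAM 20 uM; 2 h RT reaction; compounds tested as titrations in qHTS with 15 min preincubation.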
# % is scaled to controls: 0 for no effect and ±100 for the full control effect; potency is read from the fitted curve at half-maximal effect; tags tell the direction and shape of the fitted curve.
# Sequence of UniProt Q96KQ7 (Q96KQ7 whole entry, looked up): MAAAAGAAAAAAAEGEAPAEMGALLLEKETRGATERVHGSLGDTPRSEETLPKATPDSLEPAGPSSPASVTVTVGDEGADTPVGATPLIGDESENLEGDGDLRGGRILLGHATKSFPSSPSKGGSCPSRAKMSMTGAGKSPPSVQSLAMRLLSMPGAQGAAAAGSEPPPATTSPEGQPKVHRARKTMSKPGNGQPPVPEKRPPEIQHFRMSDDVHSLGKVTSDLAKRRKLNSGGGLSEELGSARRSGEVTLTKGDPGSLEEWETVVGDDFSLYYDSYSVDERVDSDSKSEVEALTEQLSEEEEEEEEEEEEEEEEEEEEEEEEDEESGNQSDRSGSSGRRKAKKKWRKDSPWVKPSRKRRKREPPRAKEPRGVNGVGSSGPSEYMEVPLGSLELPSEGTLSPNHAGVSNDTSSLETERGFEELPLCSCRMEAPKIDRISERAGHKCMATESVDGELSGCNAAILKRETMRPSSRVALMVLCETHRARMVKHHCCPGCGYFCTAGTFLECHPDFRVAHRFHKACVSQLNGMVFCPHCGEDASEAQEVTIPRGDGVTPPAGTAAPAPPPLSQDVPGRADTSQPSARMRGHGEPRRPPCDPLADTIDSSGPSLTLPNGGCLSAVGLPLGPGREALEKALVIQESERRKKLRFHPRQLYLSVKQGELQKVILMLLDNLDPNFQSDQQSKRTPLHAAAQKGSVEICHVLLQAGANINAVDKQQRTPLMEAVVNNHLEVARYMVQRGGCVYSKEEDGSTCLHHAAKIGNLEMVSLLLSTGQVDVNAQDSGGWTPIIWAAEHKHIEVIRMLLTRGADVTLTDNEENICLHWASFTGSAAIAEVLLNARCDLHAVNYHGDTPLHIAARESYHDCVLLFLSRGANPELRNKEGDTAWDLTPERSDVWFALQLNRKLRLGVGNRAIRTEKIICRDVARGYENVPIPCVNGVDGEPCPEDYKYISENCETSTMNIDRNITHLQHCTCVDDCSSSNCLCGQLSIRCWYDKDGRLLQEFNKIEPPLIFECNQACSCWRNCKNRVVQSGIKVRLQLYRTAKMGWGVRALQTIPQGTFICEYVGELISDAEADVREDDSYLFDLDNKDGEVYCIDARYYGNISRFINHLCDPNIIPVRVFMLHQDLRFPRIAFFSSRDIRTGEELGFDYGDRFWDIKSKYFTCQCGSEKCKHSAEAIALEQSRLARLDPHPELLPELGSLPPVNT
SMILES,"activity, negative = inhibition",Potency
COc1ccc2c(Cl)c(C(=O)NCCCn3ccnc3)sc2c1Cl,inconclusive: -54.2% [inhibitor],–
O=C(CCCN1C(=O)/C(=C/c2cccs2)SC1=S)NNC(=O)c1ccccc1O,inactive: 18.8%,–
COc1ccccc1NS(=O)(=O)c1cc(C(=O)NCCN2CCOCC2)ccc1Cl,–,"inconclusive: 50.1 µM [inhibitor, partial curve, poor fit]"
CC(C)N1CCC(N2CCN(Cc3ccc(-c4ccccc4Cl)o3)CC2CCO)CC1 (stereo unspecified),–,active: 15.8 µM
COc1cc(S(=O)(=O)N(Cc2cccnc2)Cc2ccco2)ccc1-n1cnnn1,–,active: 5.62 µM
O=C1Nc2c(c(=O)[nH]c(=O)n2-c2ccccc2)C1(Nc1ncccn1)C(F)(F)F (stereo unspecified),–,"inconclusive: 44.7 µM [inhibitor, full curve, poor fit]"
COc1ccc(S(=O)(=O)NN=C2CCCCC2)cc1,–,"inconclusive: 31.6 µM [inhibitor, single point]"
COC(=O)c1sccc1NC(=O)c1c(C)c(-c2cccc(Cl)c2)nc2ccccc12,–,"inconclusive: 89.1 µM [inhibitor, single point]"
Cc1c(NC(=O)C(CC(=O)O)NCc2ccco2)c(=O)n(-c2ccccc2)n1C (stereo unspecified),–,"inconclusive: 31.6 µM [inhibitor, single point]"
COC(=O)/C=C1\NCCSC1=O,inactive: -28.1% [at 102 µM],–
COC(=O)/C(=N/Nc1ccc(C)cc1)N1CCCc2ccccc21,–,active: 44.7 µM
COC(=O)CCN(C(=O)c1ccc(N2CCCCC2)c([N+](=O)[O-])c1)c1ccccn1,–,"inconclusive: 25.1 µM [inhibitor, partial curve]"
CCC1=Nc2cc(C(=O)NCCN3CCOCC3)ccc2Sc2ccc(Br)cc21,–,"inconclusive: 79.4 µM [inhibitor, single point]"
Cc1cc(NC(=O)C(=O)NCCN2CCN(S(C)(=O)=O)CC2)ccc1Br,–,"inconclusive: 39.8 µM [inhibitor, single point]"
O=C(Nc1ccc(F)cc1)c1cccc(N2C(=O)C3C4C=CC(C5CC45)C3C2=O)c1 (stereo unspecified),inactive: -5.31% [at 102 µM],–
O=C(OCC1OC(Oc2ccc(O)cc2)C(O)C(O)C1O)c1ccccc1 (stereo unspecified),inactive: 2.48% [at 12.7 µM],–
O=C(O/N=C(/c1ccccc1)c1ccncc1)c1ccccc1[N+](=O)[O-],–,"inconclusive: 44.7 µM [inhibitor, partial curve]"
Cc1ccc(S(=O)(=O)N2CCN(C)CC2)c(C)c1N(C)S(=O)(=O)c1ccc(Cl)cc1,inactive: -43.8% [at 2.33 µM],–
CNc1cc(NS(=O)(=O)c2ccc(N)cc2)nc(NC)n1,inactive: 11.4% [at 12.7 µM],–
Cc1cccc(S(=O)(=O)NCC2CCCO2)c1 (stereo unspecified),–,"inconclusive: 28.2 µM [inhibitor, single point]"
CCOc1cccc(C2c3[nH]c4ccccc4c3CCN2C(=O)CSc2ccccc2)c1 (stereo unspecified),inactive: -40%,–
CC(=O)C(Sc1nc(N(C)C)nc(N(C)C)n1)C(=O)Nc1ccccc1 (stereo unspecified),–,"inconclusive: 50.1 µM [inhibitor, partial curve, poor fit]"
COc1cc(NC(=O)c2ccc3oc(=O)c(S(=O)(=O)c4ccccc4)cc3c2)cc(OC)c1,inactive: -31.8%,–
Cn1c(SCC(=O)N2CCCCC2)nc2c([nH]c3ccccc32)c1=O,–,"inconclusive: 89.1 µM [inhibitor, single point]"

SMILES,"activity, negative = inhibition",Potency
COc1ccc(-c2ccc(CCC(=O)O)n2C(C)C)cc1,inconclusive: -72% [inhibitor],–
CCOc1cc(CNC(=O)Cn2c(=O)c3cccn3c3ccc(F)cc32)cc(OCC)c1OCC,inactive: -2.01%,–
CCCN(C(=O)CCOc1ccc(C(C)(C)C)cc1)c1c(N)n(Cc2ccccc2)c(=O)[nH]c1=O,inconclusive: -81% [inhibitor] [at 2.33 µM],–
CCN(CC)S(=O)(=O)c1ccc2oc(Nc3ccc4c(c3)OCCO4)nc2c1,–,"inconclusive: 3.16 µM [inhibitor, single point]"
COc1ccc(-c2nc3cnc(OC)nc3n(CCC#N)c2=O)cc1,inactive: 16.5% [at 0.501 µM],–
Cc1nc(SCC(=O)Nc2ccccc2C)cc(-c2ccccc2)n1,inactive: 5.8%,–
CCN1CCN(c2nc3ccccn3c(=O)c2C=O)CC1,–,"inconclusive: 89.1 µM [inhibitor, single point]"
CC1CCN(CCCCOc2cccc(Br)c2)CC1,–,active: 8.91 µM
COc1nnc(-c2ccccc2)s1,–,"inconclusive: 31.6 µM [inhibitor, single point]"
O=c1/c(=C\c2cccn2-c2ccccc2)sc2nc3ccccc3n12,–,"inconclusive: 89.1 µM [inhibitor, single point]"
O=C(CN1C(=O)c2ccccc2C1=O)Nc1ccccc1C(=O)N1CCCC1,–,"inconclusive: 22.4 µM [inhibitor, full curve]"
COc1ccc(/C=C(/NC(=O)c2ccccc2OC)C(=O)Nc2ccc(C(=O)O)cc2)cc1,–,"inconclusive: 28.2 µM [inhibitor, single point]"
CCc1ccc(S(=O)(=O)NC(=S)Nc2ccccc2)cc1,–,active: 17.8 µM
N#Cc1c(C#N)c(-c2ccccc2)n(-c2ccccc2)c1N,–,"inconclusive: 89.1 µM [inhibitor, partial curve, poor fit]"
O=C(C[n+]1cccc(CNC(=O)c2ccc(OC(F)F)cc2)c1)Nc1ccccc1Cl,–,"inconclusive: 79.4 µM [inhibitor, single point]"
COc1cc(NC(=O)CC2C(=O)OCCN2Cc2ccccc2)cc(OC)c1 (stereo unspecified),–,"inconclusive: 35.5 µM [inhibitor, partial curve, poor fit]"
COc1ccc(C(=O)Nc2cc3c(cc2N2CCOCC2)n(C)c(=O)n3C)cc1OC,inactive: 26.8% [at 102 µM],–
CCNC(=O)C(=O)NCC(c1cccs1)S(=O)(=O)c1ccc(C)cc1 (stereo unspecified),–,"inconclusive: 2.24 µM [inhibitor, partial curve, poor fit]"
O=C(c1cnc2ccccc2n1)N1CCN(c2ccc(C(F)(F)F)cn2)CC1,inactive: 11.3%,–
Clc1ccc(CN2CCN(/N=C/c3ccco3)CC2)cc1,–,active: 50.1 µM
COc1cc(NS(=O)(=O)c2ccc(NC(=O)c3cccc(F)c3)cc2)nc(OC)n1,inactive: -3.67%,–
COc1ccc(C)cc1NC(=O)CSc1nnc(COc2ccc(Cl)cc2)n1Cc1ccco1,–,"inconclusive: 56.2 µM [inhibitor, partial curve, poor fit]"
CCC(CC)c1nn2c(=O)cc(COc3ccc(NC(=O)c4ccccc4C)cc3)nc2s1,inactive: 7.22%,–
CCCn1c(=O)c2ccccc2n2c(SCCNCCO)nnc12,–,active: 2.82 µM

SMILES,"activity, negative = inhibition",Potency
O=C(NC(=S)Nc1ccc2c(c1)OCCO2)c1ccccc1,–,active: 39.8 µM
CC1(C)Cc2c(C#N)c(OCC(=O)c3ccc(Cl)cc3)nc(-c3ccoc3)c2CO1,–,"inconclusive: 89.1 µM [inhibitor, single point]"
COc1ccc(NC(=O)/C(C#N)=C\c2ccc(N3CCOCC3)o2)cc1,–,"inconclusive: 50.1 µM [inhibitor, partial curve, poor fit]"
CC(C)=N/N=C(\N)SCc1ccccc1,–,active: 7.94 µM
Cc1ccc(-c2nc(CCNC(=O)c3ccco3)cs2)cc1,inactive: -21.1% [at 102 µM],–
COc1ccc(Cl)cc1NC(=S)N(Cc1cccnc1)Cc1ccco1,–,"inconclusive: 70.8 µM [inhibitor, single point]"
Clc1ccc2nc(COc3ccccc3)[nH]c2c1,inactive: 7.64% [at 0.501 µM],–
CCN1C(=O)/C(=C2\SC(=S)N(NC(=O)c3ccccc3O)C2=O)c2ccccc21,–,active: 15.8 µM
Cc1c(Cl)cccc1NC(=O)Cn1c(=O)n(Cc2ccco2)c(=O)c2sc3ccccc3c21,inactive: 36.8%,–
CCN1/C(=C2\C(=O)N(C)C(=S)N2c2ccccc2)C=Cc2ccccc21,inactive: -140%,–
COCCCNC(=O)CCSc1ccc(C)cc1,inactive: 13.4%,–
Cc1cc(NC(=O)CSc2nnc(NC(=O)C3CC(=O)N(c4ccccc4)C3)s2)no1 (stereo unspecified),–,"inconclusive: 1.41 µM [inhibitor, full curve]"
CCCc1nn2c(=O)cc(COC(=O)c3cccc(NC(=O)c4cccs4)c3)nc2s1,inactive: 5.93%,–
CC1(C)CC(=O)C(N=Nc2cccnc2)=C(O)C1,inconclusive: -79.4% [inhibitor],–
COc1cc(/C=N/NC(=O)c2cccc([N+](=O)[O-])c2)ccc1OC(=O)c1ccco1,–,"inconclusive: 79.4 µM [inhibitor, partial curve, poor fit]"
C=CC12C=CC=CN1C(C(=O)OC)=C(C(=O)OC)C(C(=O)OC)=C2C(=O)OC (stereo unspecified),–,"inconclusive: 28.2 µM [inhibitor, single point]"
Clc1cccc(Cl)c1CO/N=C/c1c(-c2ccccc2)nc2n1CCS2,–,"inconclusive: 31.6 µM [inhibitor, full curve, poor fit]"
CC(=O)c1ccccc1Oc1cc(NN2CCCCC2)c([N+](=O)[O-])cc1[N+](=O)[O-],–,active: 28.2 µM
COc1ccc(OC)c(-n2c(=S)[nH]c3cc(C(=O)N4CCC(C(N)=O)CC4)ccc3c2=O)c1,–,"inconclusive: 22.4 µM [inhibitor, single point]"
CCCCn1c(N)c(N(CC(C)C)C(=O)CC(NC(=O)c2ccccc2)c2ccccc2)c(=O)[nH]c1=O (stereo unspecified),–,"inconclusive: 89.1 µM [inhibitor, single point]"
CN/S(=N/S(=O)(=O)c1ccccc1)c1ccc(C)cc1 (stereo unspecified),inactive: 17.1%,–
CN(CC(=O)Nc1ccc2c(c1)OCCO2)S(=O)(=O)c1cccc2cccnc12,–,"inconclusive: 89.1 µM [inhibitor, single point]"
COc1ccccc1-n1c(SCC(=O)NC2CCCCC2)nc2c(c1=O)SCC2,–,"inconclusive: 89.1 µM [inhibitor, single point]"

# From PubChem BioAssay AID504332 (National Center for Advancing Translational Sciences (NCATS), 2011)
